Data reported in PubChem BioAssay AID485294 (National Center for Advancing Translational Sciences (NCATS), 2010).
In all, about 370,000 compounds went through this assay and about 150 (0.041%) were called active. Inconclusive results, whose numbers are uncertain, are shown with a selection of clear calls. Calls follow the shape of the dose curve; as a rule, active = well fitted inhibition curve with a large enough effect; inconclusive = small, poorly fitted or top-dose-only effect; inactive = flat fitted curve, though single readings scatter. No potency is given beside an inconclusive call; the fits are too rough.

Molecular target: Beta-lactamase (Escherichia coli (strain K12)) (UniProt P00811)
Assay: qHTS Inhibitors of AmpC Beta-Lactamase (assay with detergent); also: nearly all actives have a fitted effect of over 25% in size
Conditions: AmpC hydrolysis of nitrocefin, absorbance 480 nm, 0.01% Triton; series mostly up to 114 µM
In short: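 AmpC (5.3 nM in the dispensed reagent) in 20 mM phosphate pH 7.0 with 0.01% (detergent screen) or 0.0001% Triton X-100 was preincubated with compounds for 15 min at room temperature. Nitrocefin was then added from an 800 uM solution, and hydrolysis was followed at 480 nm.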
Potency is read from the fitted curve at half-maximal effect; tags tell the direction and shape of the fitted curve.

Sequence of UniProt P00811 (P00811 whole entry, looked up): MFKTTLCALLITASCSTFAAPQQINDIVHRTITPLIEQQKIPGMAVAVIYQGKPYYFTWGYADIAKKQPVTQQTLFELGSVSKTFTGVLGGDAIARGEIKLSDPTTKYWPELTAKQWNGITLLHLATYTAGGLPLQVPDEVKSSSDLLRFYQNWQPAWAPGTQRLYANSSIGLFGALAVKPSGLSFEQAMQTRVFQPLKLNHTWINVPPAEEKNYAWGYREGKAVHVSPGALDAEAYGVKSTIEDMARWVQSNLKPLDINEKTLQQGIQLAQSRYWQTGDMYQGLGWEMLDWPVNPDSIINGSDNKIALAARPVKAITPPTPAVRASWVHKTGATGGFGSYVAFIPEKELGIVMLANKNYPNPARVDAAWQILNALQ

Question: Which Potency does the source give for `OCC[C@@H]1C[C@@H](O)[C@H](O)[C@@]2(Cc3ccccc3CO2)O1` here?
Answer: inconclusive [inhibitor, full curve, poor fit]

Question: For `CC(=O)c1ccc(-c2nnc(CCC(=O)N3CCCC(C(=O)CC(C)C)C3)o2)s1` (configuration not stated), which Potency is on record?
Answer: inactive

Question: For `COc1cc2cccc(OC)c(=O)c2c(OC)c1OC`, which Potency is on record?
Answer: inconclusive [inhibitor, full curve, poor fit]

Question: How did the Potency turn out when `O=C(C[n+]1ccc(C(=O)NCc2ccccc2)cc1)c1ccc(OC(F)F)cc1` was run?
Answer: inactive

Question: For `Cc1cc(Nc2cccc(Cl)c2Cl)n2ncnc2n1`, which Potency is on record?
Answer: inconclusive [inhibitor, full curve, poor fit]

Question: With `Cc1[nH]c2c(ccc3cccnc32)c1C` as the compound, how does the Potency read?
Answer: inactive

Question: Which Potency does the source give for `O=C1CCCCC1Sc1nnc(Nc2ccccc2)s1` (configuration not stated) here?
Answer: inactive

Question: `COC(=O)/C(=N/Nc1ccccc1Cl)Sc1nnc(C(O)c2ccccc2)n1-c1ccccc1` (configuration not stated) was tested. Which Potency did it give?
Answer: inconclusive [inhibitor, full curve, poor fit]

Question: With `COc1ccc(NC(=O)C2CCN(C(=O)c3cccs3)CC2)cc1` as the compound, how does the Potency read?
Answer: inactive

Question: For `COc1ccc(C(=O)N(CN2CCCC2=O)c2nccs2)cc1OC`, which Potency is on record?
Answer: inconclusive [inhibitor, single point]

Question: `O=C1CC(NS(=O)(=O)c2ccc([N+](=O)[O-])cc2)CN1c1ccc(Cl)cc1` (configuration not stated) was tested. Which Potency did it give?
Answer: inconclusive [inhibitor, full curve, poor fit]

Question: How did the Potency turn out when `COc1ccc(-n2ncc3c2CC(C)(C)CC3NC(=O)c2cn[nH]c2)cc1` (configuration not stated) was run?
Answer: inconclusive [inhibitor, full curve, poor fit]

Question: How did the Potency turn out when `CN1C(=O)NC(NS(=O)(=O)c2ccc(N)cc2)(C(F)(F)F)C1=O` (configuration not stated) was run?
Answer: inactive

Question: For `CN(C)S(=O)(=O)c1ccc(C(=O)Oc2coc(CSc3ncccn3)cc2=O)cc1`, which Potency is on record?
Answer: inconclusive [inhibitor, single point]

Question: With `Cc1cccc(NC(=O)Cn2cc(C(=O)C3CC3)c3ccccc32)c1C` as the compound, how does the Potency read?
Answer: inconclusive [inhibitor, full curve]

Question: For `CC(C)[C@H](NC(=O)NCc1ccco1)C(=O)O`, which Potency is on record?
Answer: inconclusive [inhibitor, full curve, poor fit]

Question: Which Potency does the source give for `CCN(CC)S(=O)(=O)c1ccc2c(c1)C(=NO)c1cc(S(=O)(=O)N(CC)CC)ccc1-2` here?
Answer: inconclusive [inhibitor, full curve, poor fit]

Question: How did the Potency turn out when `Cc1cc(C)cc(-n2c(N)c(C(=O)Nc3c(C)n(C)n(-c4ccccc4)c3=O)c3nc4ccccc4nc32)c1` was run?
Answer: inconclusive [inhibitor, single point]

Question: For `Cc1c(NC(=O)NCCN2C(=O)C3C4C=CC(C4)C3C2=O)c(=O)n(-c2ccccc2)n1C` (configuration not stated), which Potency is on record?
Answer: inconclusive [inhibitor, full curve, poor fit]

Question: Which Potency does the source give for `Cc1ccccc1S(=O)(=O)Cc1ccc(C(=O)NC2CC2)o1` here?
Answer: inactive

Question: `CCCCOc1ccc(S(=O)(=O)NNC(=O)c2cc3ccccc3o2)cc1` was tested. Which Potency did it give?
Answer: inconclusive [inhibitor, full curve, poor fit]

Question: `COC(=O)C1C(c2ccc(OC)cc2)NC(=O)NC1(O)C(F)(F)Cl` (configuration not stated) was tested. Which Potency did it give?
Answer: inconclusive [inhibitor, full curve]

Question: With `N/C(=N\OC(=O)c1ccc(F)cc1)c1cccc([N+](=O)[O-])c1` as the compound, how does the Potency read?
Answer: inconclusive [inhibitor, full curve, poor fit]

Question: For `COc1ccc(OC)c(NC(=O)C2CCN(S(=O)(=O)c3ccc4c(c3)OCCO4)CC2)c1`, which Potency is on record?
Answer: inconclusive [inhibitor, partial curve, poor fit]

Question: How did the Potency turn out when `COc1ccc(NC(=O)c2c(NC(=O)COc3ccccc3)sc3c2CCC(C)C3)cc1` (configuration not stated) was run?
Answer: inactive

Question: With `Cc1cc(-n2c(=S)sc3c(=O)n(-c4ccc(F)cc4)c(SCC(=O)O)nc32)ccc1Cl` as the compound, how does the Potency read?
Answer: inconclusive [inhibitor, full curve, poor fit]

Question: Which Potency does the source give for `CCC1CCCCN1C(=O)COc1c(Br)cc(Br)c2cccnc12` (configuration not stated) here?
Answer: inconclusive [inhibitor, full curve, poor fit]

Question: For `Cc1ccc(C)c(-c2csc(NC(=O)c3cnccn3)n2)c1`, which Potency is on record?
Answer: inconclusive [inhibitor, partial curve]

Question: Which Potency does the source give for `CCOc1ccccc1COC(=O)c1cccc(-n2cnnn2)c1` here?
Answer: inconclusive [inhibitor, full curve, poor fit]

Question: How did the Potency turn out when `Cn1cc(S(=O)(=O)Oc2ccccc2)c(=O)n(C)c1=O` was run?
Answer: inconclusive [inhibitor, full curve, poor fit]

Question: How did the Potency turn out when `Cc1ccccc1Cn1c2ccccc2c2cnn(CC(=O)NC3CCC(C)CC3)c(=O)c21` (configuration not stated) was run?
Answer: inactive

Question: How did the Potency turn out when `COc1ccc(-c2nnc3sc(-c4ccccn4)nn23)cc1` was run?
Answer: inconclusive [inhibitor, partial curve, poor fit]

Question: For `Cc1ccc(C(=O)OCC(=O)NCCc2ccccc2)cc1S(=O)(=O)N1CCOCC1`, which Potency is on record?
Answer: inconclusive [inhibitor, full curve, poor fit]

Question: Which Potency does the source give for `COc1ccc(/C=N/Nc2nc(-c3cccnc3)nc3ccccc23)cc1OC` here?
Answer: inactive

Question: For `O=S(=O)(c1ccc(Cl)cc1)N1CCC(N2CCOCC2)CC1`, which Potency is on record?
Answer: inactive

Question: `Cc1nc(CCNC(=O)CC2C(=O)NCCN2Cc2ccoc2)nc2c1CCCC2` (configuration not stated) was tested. Which Potency did it give?
Answer: inactive

Question: With `S=C(NCC1CCCO1)N1CCN(Cc2ccccc2Cl)CC1` (configuration not stated) as the compound, how does the Potency read?
Answer: inconclusive [inhibitor, partial curve]

Question: How did the Potency turn out when `CCSc1cc(C)nc2c(-c3ccccc3)c(C)nn12` was run?
Answer: inconclusive [inhibitor, single point]

Question: `Cc1ccc2c(c1)NCCO2` was tested. Which Potency did it give?
Answer: inconclusive [inhibitor, full curve, poor fit]

Question: With `CC(=O)c1cccc(NC(=O)CSc2nnc(-c3ccc(S(=O)(=O)N4CCCC4)cc3)o2)c1` as the compound, how does the Potency read?
Answer: inconclusive [inhibitor, full curve, poor fit]

Question: How did the Potency turn out when `Cc1cc2c(=O)n(Cc3ccco3)c(SCC(=O)c3ccc(Cl)s3)nc2s1` was run?
Answer: inactive

Question: For `O=C1CCN(Cc2ccc([N+](=O)[O-])cc2)CCN1CCO`, which Potency is on record?
Answer: inconclusive [inhibitor, full curve, poor fit]

Question: `Cc1ccccc1NC(=S)N/N=C/c1ccc(O)cc1O` was tested. Which Potency did it give?
Answer: inactive

Question: How did the Potency turn out when `CCOCCn1c(SCc2ccc(F)cc2)nc2c1c(=O)[nH]c(=O)n2C` was run?
Answer: inconclusive [inhibitor, partial curve]

Question: `CC(=O)Nc1ccc(/C(C)=N/NC(=O)c2ccc(F)cc2)cc1` was tested. Which Potency did it give?
Answer: inactive

Question: Which Potency does the source give for `COc1ccc2c(c1)CC/C(=C/c1ccncc1)C2=O` here?
Answer: inconclusive [inhibitor, partial curve, poor fit]

Question: Which Potency does the source give for `c1ccc(CSc2nnc3ccc(-c4cccs4)nn23)nc1` here?
Answer: inactive

Question: How did the Potency turn out when `C=CCNC(=O)c1c(N)n(-c2cccc(S(N)(=O)=O)c2)c2nc3ccccc3nc12` was run?
Answer: inconclusive [inhibitor, full curve, poor fit]

Question: For `COc1ccc(CN2CCC(=O)N([C@H](CO)c3ccccc3)CC2)cc1OC`, which Potency is on record?
Answer: inconclusive [inhibitor, partial curve]

Question: `Cc1c(Cl)cccc1NC(=S)NCCc1ccc(F)cc1` was tested. Which Potency did it give?
Answer: inconclusive [inhibitor, full curve, poor fit]

Question: How did the Potency turn out when `C/C(CC(=O)Nc1ccc(Cl)cc1)=N\NC(=O)C(=O)NCCO` was run?
Answer: inconclusive [inhibitor, full curve, poor fit]

Question: With `CCCCCCSc1nnc2c(n1)OC(C)Nc1ccc(Br)cc1-2` (configuration not stated) as the compound, how does the Potency read?
Answer: inactive

Question: `COc1ccccc1Oc1ccc(NC(=O)c2ccc(Cl)cc2)cc1` was tested. Which Potency did it give?
Answer: inconclusive [inhibitor, full curve, poor fit]

Question: With `COc1ccccc1/C=C1\SC(=S)N(CCC(=O)Nc2nnc(C)s2)C1=O` as the compound, how does the Potency read?
Answer: inactive

Question: Which Potency does the source give for `CCOC(=O)c1cc2c3ccccc3n(CC)c2nc1N` here?
Answer: inconclusive [inhibitor, single point]

Question: For `COc1ccc(C(=O)n2nc(-c3ccco3)nc2SC)cc1OC`, which Potency is on record?
Answer: inconclusive [inhibitor, full curve]

Question: Which Potency does the source give for `Cc1c(Br)cc(C(=O)NC2CCCCC2)c(C)c1C` here?
Answer: inconclusive [inhibitor, full curve, poor fit]

Question: Which Potency does the source give for `O=C1c2c(O)cc(O)cc2O[C@H](c2ccc(O)c(O)c2)[C@H]1O` here?
Answer: inconclusive [inhibitor, partial curve, poor fit]

Question: `CC(C)N(C)CCOC(=O)c1ccccc1Br` was tested. Which Potency did it give?
Answer: inconclusive [inhibitor, full curve, poor fit]

Question: With `Cc1ccc(NC(=O)CN(C)C(=O)CNC(=O)c2sc3ccccc3c2Cl)cc1` as the compound, how does the Potency read?
Answer: inconclusive [inhibitor, full curve]

Question: How did the Potency turn out when `Cc1cc(C)n(-c2ncnc3sc4c(c23)CCCC4)n1` was run?
Answer: inconclusive [inhibitor, full curve, poor fit]

Question: For `COC(=O)/C=C(\C)NC(=O)c1cccs1`, which Potency is on record?
Answer: inconclusive [inhibitor, partial curve]

Question: `CCn1cc(C(=S)N2CCC(C(N)=O)CC2)c2ccccc21` was tested. Which Potency did it give?
Answer: inconclusive [inhibitor, single point]

Question: With `CN1c2ccccc2Sc2cc(N)ccc21` as the compound, how does the Potency read?
Answer: inconclusive [inhibitor, full curve, poor fit]

Question: For `Cc1cc(C(=O)CSc2nnc3ccccn23)c(C)n1-c1ccccc1`, which Potency is on record?
Answer: inconclusive [inhibitor, full curve]

Question: Which Potency does the source give for `O=C(COc1cccc(Cl)c1)N/N=C\c1cc2ccccc2nc1Cl` here?
Answer: inconclusive [inhibitor, full curve, poor fit]

Question: Which Potency does the source give for `CCOc1ccccc1NC(=O)Nc1ccc(Cl)cc1` here?
Answer: inconclusive [inhibitor, full curve, poor fit]
